A compilation of properties of binary mixtures (doi:10.1016/j.molliq.2020.112718)
The densities may have been worked out from excess volumes.

Experiment: xn = mol fraction of the nth substance listed
Conditions: 100 kPa

CCOCC[n+]1ccn(C)c1.C[C@@H](O)[C@H](N)C(=O)[O-] + O
mass density [kg/m3]
Conditions | 288.15 K | 293.15 K | 298.15 K | 303.15 K | 308.15 K | 313.15 K | 318.15 K | 323.15 K | 328.15 K
x1 = 0.3157 | 1160.8 | 1157.2 | 1153.6 | 1150 | 1146.4 | 1142.8 | 1139.1 | – | 1131.8
x1 = 0.3647 | 1160.9 | 1157.3 | 1153.7 | 1150.1 | 1146.5 | – | 1139.3 | – | –
x1 = 0.4246 | 1161.1 | 1157.4 | 1153.9 | 1150.3 | 1146.7 | 1143 | 1139.4 | 1135.8 | 1132
x1 = 0.508 | – | – | 1154 | 1150.4 | 1146.8 | 1143.2 | 1139.5 | 1135.9 | –
x1 = 0.6189 | 1161.3 | 1157.7 | – | 1150.6 | 1146.9 | 1143.3 | 1139.7 | 1136 | 1132.3
x1 = 1 | 1161.6 | 1158 | 1154.4 | 1150.8 | 1147.2 | 1143.5 | 1139.9 | 1136.3 | –

COCC[n+]1ccn(C)c1.C[C@@H](O)[C@H](N)C(=O)[O-] + O
mass density [kg/m3]
Conditions | 288.15 K | 293.15 K | 298.15 K | 303.15 K | 308.15 K | 313.15 K | 318.15 K | 323.15 K | 328.15 K
x1 = 0.3313 | 1196.3 | 1192.7 | 1189.2 | 1185.6 | – | 1178.5 | 1175 | 1171.4 | 1167.7
x1 = 0.3795 | – | 1192.9 | 1189.3 | 1185.7 | 1182.2 | 1178.7 | 1175.2 | 1171.6 | 1167.9
x1 = 0.4475 | 1196.6 | 1193 | 1189.5 | 1185.9 | 1182.3 | 1178.8 | 1175.3 | – | 1168.1
x1 = 0.5347 | – | 1193.2 | 1189.6 | – | 1182.5 | 1179 | – | – | 1168.3
x1 = 0.657 | – | 1193.4 | 1189.8 | – | 1182.7 | 1179.2 | 1175.7 | – | 1168.5
x1 = 1 | – | 1193.6 | 1190.1 | 1186.6 | 1183 | 1179.4 | 1176 | 1172.4 | 1168.8
